From a collection of fitness landscapes (doi:10.1016/j.celrep.2020.107928)
Over roughly 81,000 sequences, “one-hybrid fitness for binding NBS DNA” has its median near -0.1; the highest 2% begin near 0.36. Some of the results follow.

B1: Caulobacter ParB omega fusion; a variant is named by its letters at X, in order, B8GW30 (parent)
chain: MESVVVGEPGMSEGRRGLGRGLSALLGEVDAAPAQAPGEQLGGSREAPIEILQRNPDQPRRTFREEDLEDLSNSIREKGVLQPILVRPSPDTAGEYQIVAGERAWRAAQRAGLKTVPIMVRELDDLAVLEIGIIENVQRADLNVLEEALSYKVLMEKFERTQENIAQTIGKSXSHVANXMRLLXLPDEVQSYLVSGELTAXHARAIAAAADPVALAKQIIEGGLSVRETEALARKAPNLSAGKSKGGRPPRVKDTDTQALESDLSSVLGLDVSIDHRGSTGTLTITYATLEQLDDLCNRLTRGI

Variants of: B1
Assay: one-hybrid fitness for binding NBS DNA (the Noc-binding site; scaled: cognate 1, non-cognate 0); higher = stronger binding
Details: with NBS DNA site
Procedure, shortened: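 Pre- and post-selection plasmids were Illumina-sequenced, three replicate libraries were pooled, and any variant with under 10 reads was removed. The libraries were Caulobacter ParB with four specificity codons randomised, selected in E. coli USO through a HIS3 reporter whose site is 19 bp from the promoter. Cells grew 48 hours at 37°C on M9 without histidine, with 0.1 mM IPTG and 5 mM 3-AT. Fitness is the log change in variant-to-wild-type read ratio, rescaled against cognate and non-cognate.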

Variant	one-hybrid fitness for binding NBS DNA
YWKS	≤ 0.2
HWVR	≤ 0.2
GACA	≤ 0.2
QASW	≤ 0.2
MSRG	≤ 0.2
DHMN	≤ 0.2
LSCT	≤ 0.2
GAPE	≤ 0.2
SKGW	≤ 0.2
THFC	≤ 0.2
SWKR	≤ 0.2
QVEV	≤ 0.2
RCLR	0.416
SLYL	≤ 0.2
WWQR	≤ 0.2
IEKT	≤ 0.2
KSKR	0.342
HDAD	≤ 0.2
PFSM	≤ 0.2
HPQC	≤ 0.2
KASY	≤ 0.2
DYRR	≤ 0.2
YYDT	≤ 0.2
IFNG	≤ 0.2
QIEG	≤ 0.2

Variant	one-hybrid fitness for binding NBS DNA
APGD	≤ 0.2
LSAG	≤ 0.2
SRHS	≤ 0.2
PHAC	≤ 0.2
KDGL	≤ 0.2
DCSQ	≤ 0.2
AFQT	≤ 0.2
RWYC	≤ 0.2
HVRN	≤ 0.2
HFTT	≤ 0.2
AGAT	≤ 0.2
SQKP	≤ 0.2
RDDG	≤ 0.2
NIPN	≤ 0.2
RPTG	≤ 0.2
DLFG	≤ 0.2
LCKT	≤ 0.2
SHSF	≤ 0.2
RSYS	0.409
SKTQ	≤ 0.2
RACN	≤ 0.2
PFIS	≤ 0.2
NNVL	≤ 0.2
NVLC	≤ 0.2
AFCR	≤ 0.2

Variant	one-hybrid fitness for binding NBS DNA
DTFT	≤ 0.2
CTNS	≤ 0.2
ECNV	≤ 0.2
DTPG	≤ 0.2
QTYS	0.507
PQKG	≤ 0.2
REVE	≤ 0.2
CALS	≤ 0.2
IIMK	≤ 0.2
AIIL	≤ 0.2
MSRC	≤ 0.2
YQQY	≤ 0.2
ESPW	≤ 0.2
LCRT	≤ 0.2
GADW	≤ 0.2
GQWK	≤ 0.2
VLMY	≤ 0.2
RRPN	≤ 0.2
IRGC	≤ 0.2
LDFW	≤ 0.2
APHG	≤ 0.2
DFNM	≤ 0.2
QEKV	≤ 0.2
ASTN	≤ 0.2
QSFH	≤ 0.2

Variant	one-hybrid fitness for binding NBS DNA
TSGV	≤ 0.2
IRNY	≤ 0.2
KRNK	≤ 0.2
KHWT	≤ 0.2
RMVW	≤ 0.2
SHFS	≤ 0.2
VQPM	≤ 0.2
SKVS	≤ 0.2
LLDG	≤ 0.2
GRGR	≤ 0.2
TLIV	≤ 0.2
YPTG	≤ 0.2
RYVA	≤ 0.2
LTNH	≤ 0.2
SLMT	≤ 0.2
ETGL	≤ 0.2
DTTR	0.304
HWLK	≤ 0.2
HHTM	≤ 0.2
PQLY	≤ 0.2
LHMT	≤ 0.2
FTST	≤ 0.2
